Test results: PMC7822688, “W196 and the β-Hairpin Motif Modulate the Redox Switch of Conformation and the Biomolecular Interaction Network of the Apoptosis-Inducing Factor” (Oxidative Medicine and Cellular Longevity, 2021)
Values belong to the binder of their own block, whether it stands above or below them.

Experiments:
[1] = target: T1, human cyclophilin A (CypA) (human, UniProt P62937); assay: ITC; Auto-iTC200, 25°C, 50 mM potassium phosphate, pH 7.4; 10-20 μM protein partner titrated into ~10 μM oxidized hAIF_(∆1-101) variant, without NADH; single-ligand binding site model; settings: both partners purified
T1 construct: human cyclophilin A (CypA), UniProtKB P62937; synthetic codon-optimised cDNA in pET28a (NdeI-NotI); The His6 tag is called cleavable; whether it was cleaved is told only in the supplementary materials; source: E. coli C41 (DE3), purified (protocol in the supplementary materials)

[2] = target: the molecule itself; assay: cross-linking; 4 μM hAIF_(∆1-101) variant, 100-fold excess of BS^3, 10 mM phosphate, pH 7.4, room temperature, 12% SDS-PAGE; with an excess of NADH (CTC state)

- Kd [1]: 1800 nM
B1: W196A hAIF_(Δ[…]) (domain or fragment)
chain: not shown
notes: FAD holoprotein; 'ox' oxidized, 'CTC' after reduction with NADH; The His6 tag is called cleavable; whether it was cleaved is told only in the supplementary materials; also called W196Aox; source: E. coli C41 (DE3), purified to homogeneity (protocol in the supplementary materials)
- stoichiometry N [2]: 2

- Kd [1]: 1000 nM
B2: W196Y hAIF_(Δ[…]) (domain or fragment)
chain: not shown
notes: FAD holoprotein; 'ox' oxidized, 'CTC' after reduction with NADH; The His6 tag is called cleavable; whether it was cleaved is told only in the supplementary materials; also called W196Yox; W196Y CTC; source: E. coli C41 (DE3), purified to homogeneity (protocol in the supplementary materials)
- stoichiometry N [2]: 2

B3: W196L hAIF_(Δ[…]) (domain or fragment)
chain: not shown
notes: FAD holoprotein; 'ox' oxidized, 'CTC' after reduction with NADH; The His6 tag is called cleavable; whether it was cleaved is told only in the supplementary materials; also called W196Lox; W196L CTC; source: E. coli C41 (DE3), purified to homogeneity (protocol in the supplementary materials)
- stoichiometry N [2]: 2
